# According to PubChem BioAssay AID588342 (National Center for Advancing Translational Sciences (NCATS), 2011):
# Among all 360,000 compounds or so, about 25,000 (6.9%) were called active. This list was built around the results that the source calls inconclusive (neither active nor inactive); the mix of calls is not that of the screen. The call rests on the fitted dose curve; in most records, active means well fitted inhibition curve with a large enough effect; inconclusive means small, poorly fitted or top-dose-only effect; inactive means flat fitted curve, though single readings scatter. Potencies of inconclusive entries are doubtful fits and often do not repeat.
# Biological target: Luciferin 4-monooxygenase (Photinus pyralis) (UniProt P08659)
# UniProt P08659, sequence (P08659 whole entry, looked up): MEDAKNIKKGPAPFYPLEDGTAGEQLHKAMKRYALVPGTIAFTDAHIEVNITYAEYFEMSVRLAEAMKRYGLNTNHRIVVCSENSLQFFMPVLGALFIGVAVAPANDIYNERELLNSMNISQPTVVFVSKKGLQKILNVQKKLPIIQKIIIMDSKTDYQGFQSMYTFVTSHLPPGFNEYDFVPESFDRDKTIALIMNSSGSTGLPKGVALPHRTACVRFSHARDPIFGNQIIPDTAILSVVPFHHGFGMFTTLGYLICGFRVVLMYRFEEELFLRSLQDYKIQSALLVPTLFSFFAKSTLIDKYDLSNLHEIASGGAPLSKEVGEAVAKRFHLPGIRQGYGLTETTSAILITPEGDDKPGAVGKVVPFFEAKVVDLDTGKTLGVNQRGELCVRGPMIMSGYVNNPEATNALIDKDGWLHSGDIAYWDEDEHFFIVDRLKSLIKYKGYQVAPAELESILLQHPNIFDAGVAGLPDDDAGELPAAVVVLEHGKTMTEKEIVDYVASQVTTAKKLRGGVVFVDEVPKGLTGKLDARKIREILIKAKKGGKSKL
# Assay: qHTS profiling assay for firefly luciferase inhibitor/activator using purifed enzyme and Km concentrations of substrates (counterscreen for miR-21 project); further: nearly all actives have a fitted effect of over 55% in size;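 on activity change, negative = inhibition: plate controls were vehicle for no effect and reference inhibitor for full effect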
# Settings: purified FLuc, luminescence inhibition; activity change, negative = inhibition: at 57.5 µM (top of the series)
# Outline: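 Purified P. pyralis luciferase, 10 nM final, with Km-level 10 uM D-luciferin and 10 uM ATP in 50 mM Tris acetate pH 7.5, 10 mM Mg acetate, 0.01% Tween-20, 0.05% BSA; 6-point qHTS titration about 60 µM downward; luminescence read.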
# Potency means the concentration at half of the fitted maximal effect; tags describe the fitted curve by direction and shape.
Compound,Potency,"activity change, negative = inhibition"
Cc1ccc(Nc2nc(N)nc(CSCCO)n2)cc1,active: 23.9 µM,–
Cc1cc2ccccc2n1-c1ccc(C(=O)N2CCC(C(=O)NCc3ccccc3Cl)CC2)s1,–,inactive: -19.2%
Cc1ccc(NC(=O)c2sc3nc4c(c(-c5ccco5)c3c2N)CCC4)cc1,"inconclusive: 30.1 µM [inhibitor, partial curve, poor fit]",–
CC(=O)c1cc(F)c(N2CCCCCC2)cc1C,"inconclusive: 26.9 µM [inhibitor, partial curve, poor fit]",–
O=C(O)c1ccc(/C=C2\SC(=S)N(NC(=O)c3ccccc3)C2=O)cc1,"inconclusive: 37.9 µM [inhibitor, single point]",–
COc1ccc(/C=C2\SC(=O)N(CC(=O)NCCCn3ccnc3)C2=O)cc1,active: 9.53 µM,–
O=c1[nH]nc(Cc2ncc(C(F)(F)F)cc2Cl)c2ccccc12,–,inactive: -1.05%
Cc1cc(-c2ccc(Cl)cc2)c2cnn(C(C)C)c2n1,"inconclusive: 26.9 µM [inhibitor, single point]",–
CC(C)OCCCNC(=S)NNC(=O)c1ccc(Cl)c(Cl)c1,"inconclusive: 7.57 µM [inhibitor, partial curve, poor fit]",–
COc1ccc(N2CCN(C(=O)c3ccc(-c4nc5ccccc5s4)o3)CC2)cc1,active: 9.53 µM,–
COc1ccc(C2=NN(c3ccc(C(=O)O)cc3)C(c3ccc(OC)c(OC)c3)C2)cc1 (centres undefined),"inconclusive: 37.9 µM [inhibitor, single point]",–
CCC1=[N+](CC(=O)c2ccc(Br)cc2)CCn2c(C)ccc21,–,inactive: -1.15%
Cc1ccc(CCNC(=O)C2CC(c3ccc(C(F)(F)F)cc3)=NO2)cc1 (centres undefined),–,inactive: -3.44%
COc1cnn(-c2ccc(Br)cc2)c(=O)c1SCc1ccccc1,"inconclusive: 26.9 µM [inhibitor, partial curve]",–
COc1ccc(C(=O)NCC(=O)N/N=C/C=C/c2ccccc2)cc1OC,"inconclusive: 26.9 µM [inhibitor, single point]",–
N#Cc1cnc(SCCc2ccccc2)nc1N,"inconclusive: 37.9 µM [inhibitor, partial curve, poor fit]",–
CCc1ccccc1NC(=O)CNC(=O)c1cccc(S(=O)(=O)N2CCN(Cc3ccccc3)CC2)c1,–,inactive: 4.41%
CCn1c(SCc2cccc(C(=O)O)c2)nnc1-c1ccc(Cl)cc1,"inconclusive: 21.3 µM [inhibitor, partial curve, poor fit]",–
COc1ccc(CN2CN(S(=O)(=O)c3cccs3)c3nc4ccccc4nc32)cc1,"inconclusive: 30.1 µM [inhibitor, partial curve, poor fit]",–
